Reference: paper PMC4336329 (PLoS ONE, 2015)
In all, about 310,000 compounds went through this assay and about 2,200 (0.71%) showed an effect of 50% or more. Effects have a minus sign here. The list shows a part of the results. Where a SMILES comes first, the peptide text is derived from it. [ ]: non-standard residue; d: D form. The star is where a group is joined. ξ: configuration not given here. Cbz = O=C(OCc1ccccc1)*; ξP = O=C(O)C1CCCN1

These compounds were tested against human ether-à-go-go-related gene (hERG) potassium channel (human, UniProt Q12809) (assay: primary screen, population patch clamp on CHO cells stably expressing hERG).
Sequence of human ether-à-go-go-related gene (hERG) potassium channel (Q12809 whole entry, looked up): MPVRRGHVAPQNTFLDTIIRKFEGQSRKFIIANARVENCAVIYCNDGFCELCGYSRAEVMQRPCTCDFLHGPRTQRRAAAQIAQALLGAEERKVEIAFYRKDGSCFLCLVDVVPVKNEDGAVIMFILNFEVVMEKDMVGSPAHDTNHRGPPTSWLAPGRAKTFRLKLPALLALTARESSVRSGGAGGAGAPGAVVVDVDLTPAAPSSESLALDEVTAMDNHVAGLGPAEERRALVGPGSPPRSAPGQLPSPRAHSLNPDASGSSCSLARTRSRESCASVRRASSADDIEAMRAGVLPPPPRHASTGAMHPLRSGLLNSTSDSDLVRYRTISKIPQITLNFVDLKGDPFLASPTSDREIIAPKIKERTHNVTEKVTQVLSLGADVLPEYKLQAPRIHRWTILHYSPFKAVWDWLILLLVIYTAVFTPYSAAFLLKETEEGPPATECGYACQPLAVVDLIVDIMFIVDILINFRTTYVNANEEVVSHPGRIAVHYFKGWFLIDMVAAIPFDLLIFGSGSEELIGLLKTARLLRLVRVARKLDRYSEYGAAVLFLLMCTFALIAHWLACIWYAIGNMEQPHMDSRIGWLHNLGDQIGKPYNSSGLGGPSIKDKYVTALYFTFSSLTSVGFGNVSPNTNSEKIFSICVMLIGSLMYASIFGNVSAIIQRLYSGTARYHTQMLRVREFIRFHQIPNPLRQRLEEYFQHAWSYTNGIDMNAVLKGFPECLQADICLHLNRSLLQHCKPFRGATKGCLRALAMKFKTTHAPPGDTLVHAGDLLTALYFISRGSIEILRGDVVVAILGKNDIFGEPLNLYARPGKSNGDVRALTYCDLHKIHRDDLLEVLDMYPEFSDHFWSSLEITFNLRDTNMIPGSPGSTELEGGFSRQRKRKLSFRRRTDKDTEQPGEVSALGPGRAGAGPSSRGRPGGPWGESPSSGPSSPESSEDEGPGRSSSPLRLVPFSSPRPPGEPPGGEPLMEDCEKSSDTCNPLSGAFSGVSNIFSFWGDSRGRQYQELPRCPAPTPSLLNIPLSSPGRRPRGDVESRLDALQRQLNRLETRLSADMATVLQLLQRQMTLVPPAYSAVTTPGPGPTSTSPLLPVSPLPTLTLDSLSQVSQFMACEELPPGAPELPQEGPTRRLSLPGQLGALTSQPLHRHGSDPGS

Row | Structure (SMILES) | hERG current change (%, negative = inhibition) at 1uM [%]
1 | COc1cccc(NC(=O)C(=S)NC2CCCCC2)c1 | 5.19
2 | CC1CC(NC(=O)c2ncn[nH]2)CC(C)(C)C1 (stereo not drawn) | -0.213
3 | CCS(=O)(=O)c1ccc2oc(SCC(=O)Nc3ccc(OC)cc3)nc2c1 | 8.25
4 | COC(=O)C1C(O)=C(C=NCC(C)N=CC2=C(O)C(C(=O)OC)C(C)(C)CC2=O)C(=O)CC1(C)C (stereo not drawn) | 10.8
5 | COC(=O)c1ccc(C(=O)N2CCCC(N3CCN(c4ccc(F)cc4)CC3)C2)nc1 (stereo not drawn) | -35
6 | NCCc1c(Cc2ccccc2)[nH]c2ccccc12 | -6.52
7 | N/C(=N\OC(=O)CCCCCN1C(=O)c2ccccc2C1=O)c1ccccc1 | 7.78
8 | CCOC(=O)c1ccccc1NC(=O)CSc1nc2ccncc2[nH]1 | 14.5
9 | O=C(/C=C1\NC2(CCCC2)Cc2ccccc21)C(=O)N/N=C/c1ccc(O)c(O)c1 | -0.965
10 | Clc1ccccc1CSc1nncn1-c1cccnc1 | 9.86
11 | CC1CCN(S(=O)(=O)c2cccc(C(=O)NCc3ccco3)c2)CC1 | 0.766
12 | Cn1cccc1CC(=O)N/N=C/C=C/c1ccccc1 | 9.48
13 | Cc1c(C(=O)NCC2CCCO2)oc2ccc(S(=O)(=O)N3CC(C)CC(C)C3)cc12 (stereo not drawn) | 16.9
14 | CC(Sc1ccccc1)C(=O)N1CCN(S(=O)(=O)c2ccc(Cl)cc2)CC1 (stereo not drawn) | 5.39
15 | CC(C)(C)c1nnc(NC(=S)Nc2ccccc2)s1 | 11.9
16 | Cc1noc(C)c1COC(=O)C1COc2ccccc2O1 (stereo not drawn) | 1.85
17 | C/C=C(\C)CN1CCCC(N(C)CCc2ccc(OC)c(OC)c2)C1 (stereo not drawn) | 8.4
18 | CCC1CCCCN1CCCNC(=O)CN1C(=O)CSc2ccc(S(=O)(=O)N3CCOCC3)cc21 (stereo not drawn) | 14.2
19 | COc1ccc(C(C)C)cc1S(=O)(=O)N1CC(C)OC(C)C1 (stereo not drawn) | 10.7
20 | O=C(N/N=C/c1ccc(Br)o1)c1cc([N+](=O)[O-])cc([N+](=O)[O-])c1 | 8.21
21 | Cc1cc2nc(-c3cccc(NC(=O)c4ccc(Br)o4)c3)oc2cc1C | 9.9
22 | CCN(CC)CCCNc1cc(C(F)(F)F)c(C#N)c2nc3ccccc3n12 | -3.04
23 | O=C(O)CSCC(=O)Nc1ccc(C(=O)O)cc1 | 14.4

Row | Structure (SMILES) | hERG current change (%, negative = inhibition) at 1uM [%]
24 | C=CCn1c(SCC(=O)Nc2ccc3c(c2)OCCO3)nnc1-c1ccco1 | -23.5
25 | CC1CCN(c2cc(Br)c([N+](=O)[O-])cc2F)CC1 | 7.48
26 | O=C(CC(c1ccccc1)c1ccccc1O)N1CCCCC1 (stereo not drawn) | 12.6
27 | CCOC(=O)CNc1nc(Cl)nc(Nc2ccc(C)cc2)n1 | 9.68
28 | CCc1sc(C(=O)Nc2ccc(F)cc2C)cc1C | 15.8
29 | CCn1c(C)c(C(=O)c2ccccc2)c(C#N)c1C(=O)O | 6.11
30 | COc1cc(/C=C2\SC(=S)N(N(C)c3ccccc3)C2=O)ccc1O | 1.71
31 | COc1ccc(/C=C(\NC(=O)c2ccccc2)C(=O)NCCC(=O)O)cc1 | 5.89
32 | C#C[C@]1(O)CC[C@H]2[C@@H]3CCC4=CC(=O)CC[C@@H]4[C@H]3CC[C@@]21CC | 15
33 | O=C(c1cccc(N2C(=O)C3C4C=CC(C4)C3C2=O)c1)N1CCN(c2ccc(F)cc2)CC1 (stereo not drawn) | 3.02
34 | COc1ccc(N2CCN(Cc3ccc(Br)s3)CC2)cc1 | -3.06
35 | CCOc1cc(N2CCOCC2)c(OCC)cc1NC(=O)CSc1cccc[n+]1[O-] | 14.3
36 | Cl.c1ccc2c(NCC3CCCO3)nc(N3CCCCC3)nc2c1 (stereo not drawn) | -49.3
37 | COc1cccc(NC(=O)C2CCN(Cc3cnn(-c4ccccc4)c3-n3cccc3)CC2)c1 | -3.74
38 | CCOC(=O)C(NC(C)=O)C(OC(C)=O)c1cccc([N+](=O)[O-])c1 (stereo not drawn) | 9.64
39 | c1ccc(-c2cc3c(N4CCN(c5ncccn5)CC4)ncnc3s2)cc1 | 18
40 | CCOC(=O)C1CCN(Cc2c(O)c3ccccc3oc2=O)CC1 | 8.86
41 | O=C(CCN1C(=O)C2CCCCC2C1=O)Nc1nc(-c2ccc(F)c(F)c2)cs1 (stereo not drawn) | 2.03
42 | Cl.O=C(c1coc2ccc(O)c(CN3CCOCC3)c12)C1CC1 | 10.9
43 | CCc1ccc(N(CC(=O)NC)S(C)(=O)=O)cc1 | 10.9
44 | COC(=O)CNC(=O)C1CCCN1C(=O)CNC(=O)OCc1ccccc1 (stereo not drawn) (Cbz-Gly-[ξP]-Gly-OMe) | 16
45 | COc1cccc(NC(=O)NCCN2CCCCC2)c1 | 4.59
46 | CC(C)C(=O)Nc1nc2cc3c(cc2s1)OCO3 | 12.6

Row | Structure (SMILES) | hERG current change (%, negative = inhibition) at 1uM [%]
47 | Cc1cc2cc(CNC(=O)c3ccc(S(=O)(=O)N(C)C)cc3)ccc2n1C | 0.0644
48 | O=C(CCN1C(=O)/C(=C/c2ccccc2F)SC1=S)Nc1ccccn1 | 1.86
49 | O=C(C1COc2ccccc2O1)N1CCN(c2ccc(F)cc2)CC1 (stereo not drawn) | -9.29
50 | COc1cc2[nH]c(=O)n(CCC(=O)N3CCN(c4cc(Cl)ccc4C)CC3)c(=O)c2cc1OC | 12.1
51 | Cc1cc(C)c[n+](CC(=O)c2c(C)cc(C)c([N+](=O)[O-])c2C)c1.[Br-] | -52.7
52 | CC(C)CCNc1nc2c(c(=O)[nH]c(=O)n2C)n1CC(O)COC(C)C (stereo not drawn) | -0.456
53 | CC(C)CC(=O)OCc1cn(-c2ccccc2)nn1 | -7
54 | CC1CCC(NC(=O)CCN2C(=O)C3C4C=CC(C4)C3C2=O)CC1 (stereo not drawn) | 8.06
55 | CCNC(=S)NS(=O)(=O)c1ccc(F)cc1 | 16.6
56 | O=C(O)CCCN=C1NC2(CCCC2)Cc2ccccc21 | -3.41
57 | CCOC(=O)C1CCCN(C(=O)c2ccc(CS(=O)(=O)c3ccc(C)cc3)o2)C1 (stereo not drawn) | -2.34
58 | COC(=O)c1cnn(-c2nc(-c3ccccc3)cs2)c1N | 2.6
59 | Cc1nc(N2CCCCC2)c2sc(=S)n(C)c2n1 | 3.96
60 | Cn1ccnc1SCCNC(=O)CCc1nnc(CCc2ccccc2)o1 | 4.57
61 | O=C(CN1CCN(S(=O)(=O)c2cc(Cl)ccc2Cl)CC1)Nc1ccc2c(c1)OCCO2 | 8.28
62 | COc1ccc(Nc2ncnc3c2oc2ccccc23)cc1 | 4
63 | O=C(CCCCCNC(=O)c1ccccc1)N/N=C/c1ccco1 | 7.05
64 | O=C(CN1C(=O)COc2ccccc21)NCCCN1CCc2ccccc2C1 | 0.908
65 | COc1ccc(C(=O)C2CCCN(C(=O)CCC3=NNC(=O)CC3)C2)c(C)c1 (stereo not drawn) | -5.76
66 | COc1ccccc1-n1c(N)cc(=O)nc1SCC(=O)Nc1cc(C)on1 | 16.4
67 | CCc1c(C)nc2ncnn2c1N1CCC(C(=O)Nc2ccccc2)CC1 | -18
68 | Fc1ccc(-c2n[nH]c(=S)n2Cc2ccccc2)cc1 | 17.1
69 | Fc1cccc(F)c1/C=C/c1ccc2ccccc2n1 | 1.89

Row | Structure (SMILES) | hERG current change (%, negative = inhibition) at 1uM [%]
70 | CCCc1cc2c(cc1NC(=O)c1ccc(Br)cc1)OCO2 | 5.51
71 | Cc1cc(C)c(NC(=O)CSc2nc3c(c(=O)n2C)SC(C)C3)c(C)c1 (stereo not drawn) | 6.65
72 | Cc1cnc(CNC(=O)c2ccc3oc(Cc4ccc(Cl)cc4)nc3c2)cn1 | 2.28
73 | Cc1onc(C(=O)NCc2cccs2)c1[N+](=O)[O-] | 10.9
74 | CC(=O)Nc1ccc(OCc2cccc([N+](=O)[O-])c2)cc1 | 6.96
75 | CCOC(=O)c1cnc2ccc(C)cc2c1Sc1ccccc1 | 4.9
76 | O=C(c1ccc(S(=O)(=O)N2CCCCC2)cc1)N(c1ccccn1)C1CCCCC1 | 3.42
77 | COc1ccccc1CCNC(C)CCc1ccc(O)cc1 (stereo not drawn) | -10.8
78 | O=C(CN1C(=O)CSC1=O)Nc1ccc2c(c1)OCCO2 | 8.19
79 | O=C1c2cnc3ncnn3c2CC2c3ccccc3CCN12 (stereo not drawn) | -6.65
80 | Cc1ccc([N+](=O)[O-])cc1N=C(c1cccc([N+](=O)[O-])c1)N1CCOCC1 | 7.11
81 | CC(=O)Nc1ccc(/C(C)=N\NC(=O)c2ccc(-c3ccccc3)cc2)cc1 | -1.89
82 | CC1CN(C(=O)CCC(=O)NC2CCCCC2)c2ccccc2S1 (stereo not drawn) | 3.02
83 | Cn1c(=O)c2c(ncn2CC(=O)Nc2nnc(Cc3ccccc3)s2)n(C)c1=O | 19.8
84 | Cc1cccc(NC(=S)NCc2ccccc2)c1C | 12.8
85 | CCN(CC(=O)Nc1cc(Cl)ccc1C)C(=O)c1ccc2c(=O)n3c(nc2c1)CCC3 | 14.9
86 | Cc1cccc(C(=O)NCC(=O)OCC(=O)N2CCc3ccccc32)c1 | 10.4
87 | Cc1nc2cc(NCc3nc4ccccc4n3Cc3ccccc3)ccc2n1C | -61.7
88 | COc1ccc(C(=O)NNC(=O)c2cc3cc(OC)ccc3oc2=O)cc1 | 5.76
89 | CC(C(=O)NC1CCCCC1)N1CCN(C)CC1.O=C(O)C(=O)O (stereo not drawn) | 10.9
90 | CC(NC(=O)c1cnccn1)c1ccc(S(N)(=O)=O)cc1 (stereo not drawn) | 11.8
